How the values were obtained:
[1] = biological target: T1, his-tagged human CD40 recombinant protein (h-CD40-his, Acrobiosystems Cat. #CD0-H5228) (human, UniProt P25942 part only); assay: SPR (Biacore), ADC captured on anti-human Fc chip, His-tagged CD40 as analyte, 1:1 model
T1 construct: Purchased reagent; also called His-tagged human CD40 antigen; not shown: His tag

[2] = biological target: human CD40 on the cell surface (Raji cells, HEK-Blue CD40L cells, primary human B cells and DCs) (human, UniProt P25942 21-277); assay: cell-based or functional assay

B1: ADC-2 (9E6-L4H2-compound 2), anti-CD40 antibody-drug conjugate (other)
heavy: QVQVQESGPGLVKPSDTLSLTCTVSGFSLSSYDMSWIRQPPGKGLEWIGAIGGAGGTYYASWAKSRVTISVDTSLNQVSLKLSSVTAADTAVYYCARGWTRLDLWGQGTLVTVSSASTKGPSVFPLAPSSKSTSGGTAALGCLVKDYFPEPVTVSWNSGALTSGVHTFPAVLQSSGLYSLSSVVTVPSSSLGTQTYICNVNHKPSNTKVDKKV[human IgG1 Fc with changes not spelt out]
light: DIQLTQSPSFLSASVGDRVTITCQASEDISSNLAWYQQKPGKPPKLLIFPASNLASGVPSRFSGSGSGTEFTLTISSLQPEDFATYYCQGGYWTSTSNFGQGFGGGTKVEIKRTVAAPSVFIFPPSDEQLKSGTASVVCLLNNFYPREAKVQWKVDNALQSGNSQESVTEQDSKDSTYSLSSTLTLSKADYEKHKVYACEVTHQGLSSPVTKSFNRGEC
modifications: budesonide-linker compound 2 (bromoacetamide) conjugated after TCEP reduction; sites not stated; found DAR 3.8 per antibody
notes: also called anti-CD40-ADC; CD40-ADC
- Kd [1]: 0.776 nM
- koff [1]: 0.000216 s⁻¹
- kon [1]: 278000 M⁻¹ s⁻¹
- B cell activation assay, CD19+CD69+%, Donor 1, IC50 [2]: 0.63 nM
- B cell activation assay, CD19+CD69+%, Donor 2, IC50 [2]: 0.48 nM

— patent publication US20260207759A1 (SUZHOU SUNCADIA BIOPHARMACEUTICALS, published 2026)
